Read-outs that look alike come from different tables or passages of the source.
Key:
[1] = system: LPS-induced TNFα in control and SP-R210L(DN) macrophages
Method: (§1) FIG. 25. Effect of SP-R210L disruption on CD14 and TLR-4 internalization and signaling. Macrophages cultured for 24 hrs on 12 well dishes were simulated with 100 ng/mL LPS for indicated time points. The cells were then harvested at indicated time points using non-enzymatic cell displacement medium and stained with antibodies to CD14 (A and B) or TLR-4 (C). The effect of dynasore on internalization of CD14 (B) and of dynasore, EIPA, and NSC23766 on TNFα synthesis (D) was assessed by addition of inhibitors 30 min before addition of LPS. Harvested cells were analyzed by flow cytometry and mean fluorescence was expressed as % of control compared to non-stimulated control or SP-R210L(DN) cells (t=0) (A-C) or as percent of control TNFα in SP-R210L(DN) cells compared to control cells (D).
(§2) Control and SP-R210L(DN) cells were placed in 12 well plates at a density of 250,000 cells/well and cultured in RPMI/10% FBS for 20 hrs. The cells were then stimulated with 100 ng/ml or 2 μg/ml of LPS for CD14 and TLR-4 endocytosis assays, respectively, and harvested at 0, 1, 2, 3, and 4 hrs post-stimulation using cell dissociation buffer. Cells were blocked in PBS containing 1% goat serum and 5 μg/ml of Fc block for 30 min at room temperature, then processed for flow staining with PE-TLR4 antibody (BioLegend) for 30 min at room temperature. To test the effect of inhibitors, cells were 80 μM Dynasore to inhibit dynamin, 40 μM EIPA to inhibit macropinocytosis, or 100 μM NSC23766 to inhibit RAC1 in normal medium 30 min prior to addition of LPS. Cells-surface CD14 and TLR-4 were assessed by flow cytometry with Cy7-conjugated CD14 (clone Sa2-8) or PE-conjugated TLR-4 (clone Sa15-21) antibodies.
CD14 controls internalization of TLR-4 which may determine TLR-4 activation from either the cell surface or endocytic vesicles. CD14 is also known to mediate macrocropinocytosis-mediated clearance of LPS. We thus asked whether SP-R210 variants influence trafficking of CD14. […] In contrast, CD14 was replenished faster in SP-R210L(DN) cells (FIG. 25B); only 15% of CD14 was lost from the cell-surface by 30 min with surface CD14 quickly returned to the cell-surface above the levels of unstimulated SP-R210L(DN) cells. To probe the trafficking of CD14 further, we monitored surface CD14 after addition of Dynasore an inhibitor of clathrin and dynamin dependent endocytosis. […] Therefore, we compared the effects of dynasore and the macrocropinocytosis inhibitor EIPA on the inflammatory response to LPS using intracellular TNFα as a readout of the LPS response.

[2] = system: TNFα secretion by control and SP-R210L(DN) Raw264.7 macrophages; test: LPS-induced secreted TNFα by ELISA after SP-A pretreatment (FIG. 20)
Method: Control cells were transfected with empty vector.
We assessed whether SP-A modifies the inflammatory response to LPS. […] SP-Am1 alone at the low concentration had no effect. […] The effect of SP-Am2 was examined at 50 μg/mL (FIG. 20B). SP-Am2 contained measurable levels of LPS, which translates to 1 ng/mL LPS at the 50 μg/mL SP-A dose. At this concentration, treatment with SP-Am2 alone produced 20-30% less TNFα in both control and SP-R210L(DN) cells compared to treatment with equivalent amount of LPS alone (FIG. 20B), consistent with an inhibitory effect of SP-Am2 on the activity of LPS.

[3] = system: cell-surface CD14 on control and SP-R210L(DN) macrophages; test: CD14 endocytosis assay by flow cytometry with dynasore (FIG. 25B); conditions: for replenishment of surface CD14: 80 μM Dynasore
Method: as §1
as §2, with “To test the effect of inhibitors, cells were 80 μM Dynasore to inhibit dynamin, 40 μM EIPA to inhibit macropinocytosis, or 100 μM NSC23766 to inhibit RAC1 in normal medium 30 min prior to addition of LPS.” left out
CD14 controls internalization of TLR-4 which may determine TLR-4 activation from either the cell surface or endocytic vesicles. […] To probe the trafficking of CD14 further, we monitored surface CD14 after addition of Dynasore an inhibitor of clathrin and dynamin dependent endocytosis. […] Therefore, we compared the effects of dynasore and the macrocropinocytosis inhibitor EIPA on the inflammatory response to LPS using intracellular TNFα as a readout of the LPS response. […]

[4] = system: SP-R210L and SP-R210S expression in Raw264.7 macrophages; test: SP-R210 expression by Western blot after SP-A treatment (FIG. 18); conditions: for expression of SP-R210 isoforms: control cells
[5] = SP-R210L(DN) cells, 80 μM Dynasore or 40 μM EIPA

In the case of `CCN(CC)CCCC(C)Nc1nc(C)cc(Nc2ccc3nc(C)cc(N)c3c2)n1` (stereo not shown) [NSC23766], the “inhibition of TNFα, SP-R210L(DN) compared to control cells” value ([1]; 100 μM NSC23766) is reported as “significantly more effective at inhibiting TNFα” and the TNFα production ([1]; both control and SP-R210L(DN) cells, 100 μM NSC23766) is reported as “blocked TNFα production”.
With `CCN(c1nc(N)c(C(=O)N=C(N)N)nc1Cl)C(C)C` [EIPA, 5-(N-Ethyl-N-isopropyl) amiloride] the “inhibition of TNFα” value [1, 5] was “insensitive to inhibition” and the “inhibition of TNFα” value ([1]; control cells, 80 μM Dynasore or 40 μM EIPA 30 min before LPS) was 60%.
In the case of “SP-Am1: SP-A from alveolar proteinosis fluid purified by a modified butanol/octylglucoside method (method 1)”, the “responsiveness to LPS (secreted TNFα)” value ([2]; 50 μg/mL pretreatment 24 hrs then 100 ng/mL LPS 4 hrs, both control and SP-R210L(DN) cells) is reported as “enhanced responsiveness to LPS” and the “effect of SP-A preparation alone (secreted TNFα)” value ([2]; alone, low concentration 5 μg/mL) is reported as “had no effect”.
In the case of `O=C(N/N=C/c1ccc(O)c(O)c1)c1cc2ccccc2cc1O` [dynasore], the “replenishment of surface CD14” value ([3]; SP-R210L(DN) cells) is reported as “partially”, the “replenishment of surface CD14” value ([3]; control cells) is reported as “blocked replenishment of surface CD14 completely” and the “internalization of CD14” value ([3]; control cells, 80 μM Dynasore 30 min before 100 ng/mL LPS) is reported as “did not block internalization of CD14”. For the same molecule, the inhibition at 80 µM ([1]; Mus musculus, Macrophage, read-out: inhibition of TNFα) was 40% and the “inhibition of TNFα” value [1, 5] was “insensitive to inhibition”.
With “SP-A: human surfactant protein A isolated from therapeutic lung lavage of alveolar proteinosis patients” the “expression of SP-R210S” value ([4]; SP-R210L(DN) cells) was “attenuated the ability of SP-A to induce expression of SP-R210S”, the “expression of SP-R210 isoforms” value ([4]; 25-100 μg/mL SP-A, concentration-dependent) was “induced expression of both SP-R210L and SP-R210S” and the “expression of SP-R210 isoforms” value ([4]; low concentration 5 μg/mL SP-A) was “appears to be inhibitory”.
With “SP-Am2: SP-A from alveolar proteinosis fluid purified by the isopropyl ether/butanol extraction method (method 2)” the “LPS-induced TNFα” value ([2]; 50 μg/mL pretreatment then 100 ng/mL LPS, both cell lines) was “inhibited LPS-induced TNFα” and the “less TNFα compared to treatment with equivalent amount of LPS alone” value ([2]; SP-Am2 alone at 50 μg/mL (1 ng/mL LPS), both control and SP-R210L(DN) cells) was 20-30%.
